# Results reported in ChEMBL document CHEMBL4888484, “Replenishing the malaria drug discovery pipeline: Screening and hit evaluation of the MMV Hit Generation Library 1 (HGL1) against asexual blood stage Plasmodium falciparum ,using a nano luciferase reporter read-out” (2022).
# About 540 (0.36%) of roughly 150,000 compounds showed an effect of 50% or more. The list shows a part of the results.
# Tested on: Plasmodium falciparum
# Experiment: Primary screen in NF54 nanoGlo assay, in single point, at 2uM, 72h; a lower Z score goes with more inhibition
# Format: functional, Erythrocyte
# Conditions: timepoint 72 hour
Compound,% Inhibition [%],Z score
CCO[C@H]1CN(CCC(=O)N2CCc3ccccc3C2)C[C@@H]1O,-11,1.71
O=C(O)CN(Cc1ccccc1)C(=O)C1CC=CC1,-9,1.35
COc1cc(Cc2ncnn2-c2ccc(F)cc2)cc(OC)c1OC,-13,1.63
C[C@H](NCc1cc(F)cc(F)c1)c1cccc(O)c1,7,-0.75
CCOc1cc(CNC2CCCC2)cc(Br)c1OCc1ccccc1,2,-0.21
C[C@H](OC(=O)c1ccnc(N(C)C)c1)C(=O)N1CCc2ccccc21,1,-0.17
O=C(O)c1nn(-c2ccc(Br)cc2)c2c1CNCC2,-4,0.54
Cc1cc(CNC(=O)[C@H]2CCOC2)c(C)o1,-9,1.69
O=C(NCCN1CCCC1)c1nc(Cc2ccccc2)n(-c2ccccc2)n1,0,-0.06
O=C(NCc1ccccc1F)N1C[C@H]2CC[C@@H](C1)[C@H]2O,-3,0.4
CCC(=O)N(CC(=O)N(Cc1ccc(F)cc1)Cc1ccc(C)s1)C(C)C,11,-1.34
CN(C(=O)Nc1ccc(C2CCC2)cc1)[C@H]1C[C@@H](C(N)=O)C1,-5,0.62
CCNC(=O)c1nc(Cn2cnc3ccccc3c2=O)no1,8,-1.08
CCOc1ncccc1-c1ccc(OC[C@H]2C[C@@H]2C(=O)O)cc1,12,-1.53
Cc1cccc(OCc2nc3ccccc3n2CC(=O)Nc2ccccc2)c1,4,-0.65
CCN(Cc1nc(N)nc(Nc2ccccc2C)n1)C[C@H]1COc2ccccc2O1,-8,1.23
CC(C)c1cnc(N(C)CC(C)(C)CO)nc1,-4,0.78
c1cnc(-c2noc(-c3cc4c(s3)CCOC4)n2)cn1,-3,0.37
Cc1ccc(Nc2ccn3c(=O)n(CC(=O)Nc4cc(F)cc(F)c4)nc3n2)cc1,-16,1.7
CC(C)(C)OC(=O)N1CCC(Cc2cc(C(=O)O)no2)CC1,-5,0.76
CC1CC(Nc2ccc3c(c2)OCCO3)CN1Cc1ccccc1 (configuration not stated),-4,0.81
CC(C)(CNC(=O)N1CCC[C@@](O)(C(F)(F)F)CC1)C1=CCCC1,0,0.04

Compound,% Inhibition [%],Z score
Cc1nnc(N2CC(C)OC(C)C2)c(C#N)c1C (configuration not stated),-1,0.16
Cc1ccc(NC(=O)COc2ccc(N3C[C@@H](C(=O)NCc4ccccc4)CC3=O)cc2)cc1,25,-2.84
Cc1noc(C)c1CCc1nc(CC(N)=O)n[nH]1,3,-0.64
CCC(CC)CS(=O)(=O)NC(=O)CCc1ccco1,-12,1.54
NC(=O)[C@@H]1C[C@@H](F)CN1C(=O)COCc1ccccc1,6,-0.76
CC(CC(=O)N1CCN(C(=O)C(N)C(C)C)CC1C)CC(C)(C)C (configuration not stated),-8,1.45
CC(C)CCNC(=O)C1CN(C(=O)Cc2ccccc2)CC1c1cccc(F)c1 (configuration not stated),-7,1.24
CC(C)[C@]1(C)NC(=O)N(Cc2nnc(C3CC3)n2C)C1=O,-5,0.45
CC1CN(C(=O)c2cncc(F)c2)CC[S+]([O-])C1 (configuration not stated),-14,1.56
O=C(Nc1ccc(Cl)cc1)c1c2c(nc3ccccc13)-c1ccccc1C2,2,-0.31
CC(C)[C@H](C)N(C(=O)Cn1nnc2ccccc21)C1CC1,-9,1.39
CC(C)=CCO[C@H]1COCC[C@@H]1NC(=O)c1cccc(N(C)C)c1,-12,1.16
C[C@H]1C(=O)N(c2ccc(Cl)cc2)CCN1C(=O)c1ccco1,-4,0.53
CCc1nnc2c(NC(=O)c3ccc(C)s3)cccn12,-9,1.31
COC[C@@H]1CN(c2ccncn2)C[C@H]1C(=O)NC(C)C,-6,0.96
CC(C)Cc1ncc2c(n1)CN(c1nccc(N3CCC(O)CC3)n1)C2,-5,0.67
CCN(CC)CCNC(=O)COc1ccc2c(c1)OC1(CCCCC1)CC2=O,-14,1.49
Cc1ccc(OC[C@@H](O)CN2CCc3c(cccc3N3CCOC3=O)C2)c(C)c1,-12,1.43
COC1CC2C(=O)N(C3CCN(c4cccc(C)n4)CC3)C(=O)N2C1 (configuration not stated),-9,1.54
CCc1nnc(-c2nnc(NCCCN3CCC(C)CC3)c3ccccc23)o1,11,-1.27
O=C(O[C@H]1CCOC1)c1cccc(-c2noc(C3CC3)n2)c1,-2,0.3
CNC(=O)NC(=O)[C@H](C)Nc1cccc(COC(C)C)c1,-8,0.94

Compound,% Inhibition [%],Z score
NC(=O)[C@@H]1CCCN1Cc1csnn1,26,-2.99
COc1ccc2c(c1)[C@]1(CC2)NC(=O)N(Cc2snnc2C)C1=O,14,-1.62
Cc1nc(C2(NC(=O)Nc3nc(C4CC4)cs3)CCCCCC2)no1,-7,1.32
Oc1cc(C(F)(F)F)c2cc3c(cc2n1)OCO3,30,-3.35
Cn1cc(C2CC2C(=O)N2CCN(C3CCCC3O)CC2)cn1 (configuration not stated),-4,0.37
Cc1ccccc1[C@@]1(CC(=O)N(CCO)C(C)C)CC(=O)N(Cc2cccnc2)C1=O,-4,0.45
CNC(=O)c1ccc(NC(=O)N2CCC3(CCCCC3)CC2)c(OC)c1,4,-0.62
Nc1nnc([C@@H]2Cc3ccccc3O2)o1,-15,1.42
C[C@@H](Cn1cnc(-c2ccccc2)c1C1CC1)Oc1cccnc1,-8,1.64
CCC1CC(CC(=O)NC2(C#N)CCc3ccccc3C2)CCO1 (configuration not stated),1,-0.27
CCC=C(C)C(=O)Nc1ccc(OC)nc1,-7,1.14
COc1ccc(Br)c(-c2nnn(CC3(O)CCC3)n2)c1,-13,2.38
CC(C)(NS(=O)(=O)C1CN(C(=O)C2CCCC2)C1)c1cccs1,-5,0.52
O=C(CN1CCN(CC(=O)NC2CC2)CC1)Nc1cc(-c2ccc3c(c2)CCC3)nn1-c1ccccc1,-29,3.41
Cc1noc(-c2csc(C(=O)NC(C)C)n2)n1,-14,2.09
Cc1noc(-c2cccnc2N[C@@H](C)CN2CCOCC2)n1,5,-0.52
O=C1CCCN1CCC1CN(C(=O)[C@@H]2CCCCN2)c2ccccc21 (some centres not stated),-15,1.8
Cc1nc(N[C@H]2CCN(C)C(=O)C2)c2cc(-c3ccccc3)sc2n1,-12,2.15
CC(=O)Nc1cc2nc3[nH]c(=O)[nH]c(=O)c3nc2cc1C,1,-0.13
C=CCC(C)NC(=O)NC(C)C1CCOCC1 (configuration not stated),1,-0.16
O=C(c1cccc2c1NCCC2)N1CCC2(CC1)C(=O)Nc1ccccc12,11,-1.5
O=C1N(C2CCCC2)CCC[C@@]12CCN(Cc1c[nH]cn1)C2,-10,1.78

Compound,% Inhibition [%],Z score
Cc1nc(CC(=O)N2C[C@@H]3CC[C@H]2CN(C(=O)c2cccnc2)C3)cs1,-6,0.79
O=C(c1ncoc1-c1ccon1)N1CCc2nc[nH]c2C1,0,-0.06
CN(C)CCN(C(=O)c1cc2c(s1)CCCCC2)c1ccccc1,0,0.06
Cc1cc(O)cc(=O)n1CCC(=O)Nc1ccc2c(c1)OCCCO2,-7,0.93
Cc1ncncc1C(=O)NC[C@H](C)c1ccc(Br)cc1,-2,0.28
O=S(=O)(c1ccccc1Cl)N1CCC2(CC1)CC2(F)F,17,-2.17
Cc1ccc(NC(=O)CC(C)(C)CC2=Nc3ccccc3S(=O)(=O)N2)cc1F,32,-4.09
Cc1nc2ccccc2c(=O)n1N(c1ccccc1)c1ccccc1,-4,0.56
Cc1ccc(CN2CCC(O)(C(F)(F)F)CC2)o1,-7,0.95
Cc1ccc(OC2(C(=O)O)CCN(Cc3cccnc3N)CC2)cc1,-11,1.01
Cc1ncsc1C(=O)N(C)c1nc2cc(Cl)ccc2s1,1,-0.13
O=C(NCc1ccco1)c1cn2ccncc2n1,-17,1.94
O=C(CCc1nc(C2CCCC2)no1)N1CCC([C@H](O)C(F)(F)F)CC1,-12,2.35
CN(CCOc1ccccc1)S(=O)(=O)C1CCC(C(F)(F)F)CC1 (configuration not stated),-3,0.51
O=C(Nc1nc(-c2cccc3ccccc23)cs1)c1ccc2c(c1)CCCC2,-3,0.47
CCCNC(=O)c1cn2c(n1)[C@@H](c1ccccc1)N(C(=O)c1cnc[nH]1)CC2,6,-0.9
COc1cccc(NC(=O)Nc2ccc(-c3cn4ccc(C)nc4n3)cc2)c1,8,-0.9
CCN(Cc1ccccc1)C(=O)c1ccnc(N2CCC(C)CC2)n1,-4,0.66
NC(=O)Cc1ccc(OCc2noc(C(=O)NCc3ccco3)n2)cc1,-5,0.5
CCn1c(=O)c(-c2noc(CCC(=O)N3CCCC3)n2)nn(-c2ccc(C)cc2)c1=O,-6,1.06
